Screen size: about 310,000 compounds; about 2,200 (0.71%) showed an effect of 50% or more. Effects have a minus sign here. The list shows a part of the results.
Target: human ether-à-go-go-related gene (hERG) potassium channel (human, UniProt Q12809)
Experiment: primary screen, population patch clamp on CHO cells stably expressing hERG

Sequence of human ether-à-go-go-related gene (hERG) potassium channel (Q12809 whole entry, looked up): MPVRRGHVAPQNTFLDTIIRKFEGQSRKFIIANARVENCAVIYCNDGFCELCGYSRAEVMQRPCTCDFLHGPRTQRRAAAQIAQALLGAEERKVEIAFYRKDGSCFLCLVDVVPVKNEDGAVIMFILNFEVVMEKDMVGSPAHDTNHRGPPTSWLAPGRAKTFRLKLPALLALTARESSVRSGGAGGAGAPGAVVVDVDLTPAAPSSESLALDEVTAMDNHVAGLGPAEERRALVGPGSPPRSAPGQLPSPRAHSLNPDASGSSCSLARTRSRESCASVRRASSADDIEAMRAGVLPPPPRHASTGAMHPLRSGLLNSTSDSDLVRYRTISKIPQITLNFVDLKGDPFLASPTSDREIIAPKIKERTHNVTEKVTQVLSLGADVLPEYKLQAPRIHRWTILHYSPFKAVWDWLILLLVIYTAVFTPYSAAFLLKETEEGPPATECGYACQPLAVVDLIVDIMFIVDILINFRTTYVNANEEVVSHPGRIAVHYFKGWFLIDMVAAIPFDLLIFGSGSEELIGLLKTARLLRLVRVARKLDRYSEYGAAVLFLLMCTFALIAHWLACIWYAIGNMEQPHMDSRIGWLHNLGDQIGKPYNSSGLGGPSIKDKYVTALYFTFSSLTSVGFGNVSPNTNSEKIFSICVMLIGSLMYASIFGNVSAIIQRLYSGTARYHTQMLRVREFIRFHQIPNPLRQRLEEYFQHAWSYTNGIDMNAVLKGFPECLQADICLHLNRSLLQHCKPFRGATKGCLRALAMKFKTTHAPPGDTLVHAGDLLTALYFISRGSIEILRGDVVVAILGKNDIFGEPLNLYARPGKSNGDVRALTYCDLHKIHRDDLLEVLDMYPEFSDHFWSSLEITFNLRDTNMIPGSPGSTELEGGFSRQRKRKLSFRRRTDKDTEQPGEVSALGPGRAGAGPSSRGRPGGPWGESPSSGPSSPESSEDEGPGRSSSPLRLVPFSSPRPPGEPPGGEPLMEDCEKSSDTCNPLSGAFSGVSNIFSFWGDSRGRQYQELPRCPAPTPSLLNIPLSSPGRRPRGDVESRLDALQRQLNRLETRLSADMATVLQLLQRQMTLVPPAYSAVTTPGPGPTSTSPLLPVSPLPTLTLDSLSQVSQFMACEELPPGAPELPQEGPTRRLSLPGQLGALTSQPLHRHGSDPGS

| SMILES | hERG current change (%, negative = inhibition) at 1uM [%] |
| --- | --- |
| COc1ccc(-c2[nH]c(-c3ccc(C(=O)O)cc3)nc2-c2ccccc2)cc1 | 5.67 |
| O=C(NCC(c1cccs1)N1CCOCC1)c1cc(S(=O)(=O)N2CCOCC2)ccc1F (stereo not drawn) | -12.4 |
| C/C=C/c1cc(OC)c2c(c1)[C@H](C)[C@@H](c1ccc(O)c(OC)c1)O2 | 15.8 |
| COc1ccc(N2CCN(c3ncnc4nc[nH]c34)CC2)cc1 | 14.8 |
| CCN1CCCC1CNC(=O)CSc1cc(=O)n(CC)c2ccccc12 (stereo not drawn) | 7.45 |
| Cc1ccc2nc(N3CCN(C(=O)c4ccco4)CC3)sc2c1 | -7.42 |
| CC(C)(CNC(=O)c1cccs1)N1CCOCC1 | 3.97 |
| CC1CCN(S(=O)(=O)c2ccc3c(c2)N(CC(=O)NCCCN2C(C)CCCC2C)C(=O)CO3)CC1 (stereo not drawn) | 6.07 |
| CCCCC(=O)N(Cc1ccc(F)cc1)C1CCS(=O)(=O)C1 (stereo not drawn) | 5.63 |
| COC(=O)c1ccccc1COn1c(=O)c(C)[n+]([O-])c2ccccc21 | 11.8 |
| CCOC(=O)C1(CCOc2ccccc2)CCN(Cc2ccccc2OC)CC1 | -37.2 |
| CN(CCCC(=O)NCCc1ccccc1)S(=O)(=O)c1ccc([N+](=O)[O-])cc1 | -5.92 |
| CC(C(=O)Nc1ccc2c(c1)OCCO2)c1ccc([N+](=O)[O-])cc1 (stereo not drawn) | -0.0809 |
| CCc1ccc(N2C(=O)CC(N3CCN(c4ccccn4)CC3)C2=O)cc1 (stereo not drawn) | 9.83 |
| CCOc1cc(C(=O)Nc2cnccn2)cc(OCC)c1OCC | -1.34 |
| S=c1[nH]nc(COc2ccccc2)n1/N=C/c1cccs1 | 5.49 |
| COc1ccc(Cl)cc1N/C(N)=N/c1nc(C)cc(=O)[nH]1 | 12.3 |
| CCNC(=S)N(CCc1c(C)[nH]c2ccc(OC)cc12)Cc1cccnc1 | 9.2 |
| Cc1ccc(S(=O)(=O)N(C)CC(=O)Nc2cc(C)ccn2)cc1 | 5.22 |
| O=C(/C=C\NCC(=O)c1ccccc1)c1ccc(F)cc1 | -2.16 |
| Cc1cc(=O)oc2cc(NC(=O)C3CCCC3)ccc12 | 10.5 |
| Cc1ccc2nc(NC(=O)CSc3nc4ccccc4o3)sc2c1 | 11.5 |
| Cl.OC(CN1CCN(c2cccc(Cl)c2)CC1)C(c1ccccc1)c1ccccc1 (stereo not drawn) | 4.57 |

| SMILES | hERG current change (%, negative = inhibition) at 1uM [%] |
| --- | --- |
| CCCCOC(=O)Cn1c(=O)c2c(nc3n2CCCCN3c2ccc(C)cc2)n(C)c1=O | -16.3 |
| Cc1ccc(NC(=O)Cc2nnc(SCC(=O)NC3CCCC3)n2C)cc1C | 1.75 |
| CCC(C)C(=O)Nc1nc2ccc(S(C)(=O)=O)cc2s1 (stereo not drawn) | 9.31 |
| Cc1ccc(S(=O)(=O)NCc2cc(=O)n(C)c(=O)n2C)cc1C | 9.96 |
| CCO[C@@H]1OC(C(=O)N2CCN(Cc3ccccc3)CC2)=C[C@H](C)[C@H]1CCCO | 11.1 |
| Cc1sc2ncnc(Sc3nnnn3-c3ccc(Cl)cc3)c2c1C | 9.98 |
| COc1ccc(N2CCN(C(=O)C(=O)c3c(C)n(C)c4ccccc34)CC2)cc1 | 10.7 |
| COc1ccc(C(=O)Nc2ccccc2C(=O)N2CCCCC2C)cc1 (stereo not drawn) | 5.39 |
| CCN(CC(=O)Nc1ccccc1C(F)(F)F)C(=O)c1cc(-c2cccs2)nn1-c1ccccc1 | 0.102 |
| CNC(=O)C1CCN(S(=O)(=O)c2c(C)noc2/C=C/c2cccc(OC)c2)CC1 | 9.04 |
| CCC(CO)(CO)N(CC(=O)Nc1ccc(OC)cc1)CC(=O)Nc1ccc(OC)cc1 | 14.4 |
| CNc1c(NS(=O)(=O)c2cc(OC)ccc2OC)c(=O)oc2ccccc12 | 12.5 |
| CC(CC1C(C#N)=C(N)SC(N)=C1C#N)c1ccccc1 (stereo not drawn) | -2.17 |
| CCC1(CCCC(=O)c2ccc(F)cc2)C(=O)NC(=S)NC1=O | 4.85 |
| CCOC(=O)CNC(=O)N1CCC(CCC(=O)N(C)Cc2ccccc2)CC1 | 12 |
| Cc1ncc(CO)c2cc(C(=O)Nc3cccc(F)c3)c(=Nc3cccc(C(N)=O)c3)oc12 | 12.1 |
| O=C(CCN1C(=O)S/C(=C/c2ccc(Cl)cc2)C1=O)N1CCOCC1 | 7.97 |
| Cc1cc(C(=O)Nc2ccc(F)cc2F)on1 | 15.7 |
| Cc1ccc(C(=O)Cn2cc([N+](=O)[O-])nc2C)cc1 | 7.68 |
| CN=c1scc(C)n1/N=C/c1ccc(O)c(O)c1O | 15 |
| Cc1ccc(OCCC(=O)N(Cc2ccccc2)c2c(N)n(Cc3ccccc3)c(=O)[nH]c2=O)cc1 | 12.7 |
| CCN(CC)c1ccc(NC(=O)C2CCC(CNc3c(N4CCCC4)c(=O)c3=O)CC2)c(C)c1 (stereo not drawn) | 13.6 |

Source: article PMC4336329 (PLoS ONE, 2015)
